Test results as given in the supplement of paper PMC12217912.
This is one part of the list. The full chains were built here from the parent and the listed change. Values near 0.05 are background.

B1: TEV protease; numbered along this chain (parent)
chain: MGESLFKGPRDYNPISSSICHLTNESDGHTTSLYGIGFGPFIITNKHLFRRNNGTLVVQSLHGVFKVKDTTTLQQHLVDGRDMIIIRMPKDFPPFPQKLKFREPQREERICLVTTNFQTKSMSSMVSDTSCTFPSGDGIFWKHWIQTKDGQCGSPLVSTRDGFIVGIHSASNFTNTNNYFTSVPKNFMELLTNQEAQQWVSGWRLNADSVLWGGHKVFMVKPEEPFQPVKEATQL

Variants of: B1
Assay: raw area under fraction-flipped curve 0-4 h after induction (AUC4h, not background-subtracted), DNA-recorder readout of cleavage of the substrate (dimensionless); higher = more cleavage of the substrate by the protease variant
Conditions: temperature: 34 °C; time window: 0-4 h after rhamnose induction
Experimental: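 In vivo DNA recorder in E. coli TOP10(DE3) ΔrhaA at 34 °C. Each TEVp single-site mutant (parent TEVp 0) is paired with a single-site variant of the 7-mer TEVs (canonical ENLYFQ|S). The substrate sits between flexible linkers in a Bxb1-sfGFP-TEVs-SsrA fusion, so cleavage stabilises Bxb1 and speeds flipping of a recombination array, read by NGS. The value is the raw area under the fraction-flipped curve over 0-4 h after rhamnose induction (AUC4h), with ≥20 reads per time point. It is not background-subtracted; inactive controls average about 0.047.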
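Note: Bxb1 expression induced with 0.2% (w/v) L-rhamnose at OD600 near 0.5, cultures sampled hourly, flipped fraction per protease–substrate barcode pair counted by paired-end Illumina sequencing.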

| Variant | area with substrate ENLYFQA | area with substrate ENLYFQC | area with substrate ENLYFQG | area with substrate ENLYFQH | area with substrate ENLYFQI | area with substrate ENLYFQK | area with substrate ENLYFQL | area with substrate ENLYFQM | area with substrate ENLYFQN | area with substrate ENLYFQP | area with substrate ENLYFQQ | area with substrate ENLYFQR | area with substrate ENLYFQS | area with substrate ENLYFQT | area with substrate ENLYFQV | area with substrate ENLYFQW | area with substrate ENLYFQY | area with substrate ENLYFQD | area with substrate ENLYFQF |
| --- | --- | --- | --- | --- | --- | --- | --- | --- | --- | --- | --- | --- | --- | --- | --- | --- | --- | --- | --- |
| T23A | 0.0825 | 0.112 | 0.101 | 0.071 | 0.0543 | 0.0644 | 0.0569 | 0.0781 | 0.0638 | 0.0544 | 0.0646 | 0.0646 | 0.0958 | 0.0591 | 0.0584 | 0.0674 |  |  |  |
| T23K | 0.0607 | 0.0859 | 0.0776 |  | 0.0596 | 0.0802 |  | 0.0833 | 0.0677 | 0.0574 |  | 0.0735 | 0.0916 | 0.0568 | 0.0599 | 0.0537 | 0.0784 |  |  |
| S26Q | 0.0814 | 0.106 | 0.0795 |  | 0.0598 | 0.0689 | 0.0681 | 0.072 | 0.0664 | 0.0651 | 0.0929 | 0.056 | 0.08 | 0.0618 | 0.0637 | 0.0658 | 0.069 | 0.0676 |  |
| S26E | 0.0911 | 0.0919 | 0.0891 | 0.0905 | 0.0638 | 0.081 | 0.0624 | 0.0709 | 0.0656 | 0.0658 |  | 0.061 | 0.0886 | 0.0697 | 0.0577 | 0.0695 | 0.0744 | 0.0683 | 0.0775 |
| S26R | 0.0778 | 0.0787 |  |  | 0.0599 | 0.0582 | 0.0522 | 0.0658 | 0.0591 | 0.0355 | 0.0515 | 0.0631 | 0.0726 | 0.0724 | 0.0587 | 0.0598 | 0.0574 | 0.0587 |  |
| N53Q | 0.0694 |  | 0.0856 | 0.0599 | 0.0714 | 0.0541 | 0.0678 | 0.0673 | 0.0658 | 0.064 | 0.0736 | 0.0524 | 0.0891 | 0.0493 |  |  | 0.0677 | 0.0446 |  |
| T44I | 0.0679 | 0.0649 |  | 0.0517 |  | 0.0553 | 0.0555 |  | 0.0537 | 0.0598 |  | 0.0605 | 0.0594 | 0.0592 | 0.0576 | 0.0666 |  | 0.0544 | 0.0517 |
| T44N | 0.044 | 0.0544 |  | 0.0367 | 0.0492 | 0.048 | 0.0541 | 0.0519 | 0.0416 |  |  | 0.0542 | 0.0461 | 0.0454 | 0.0512 | 0.0498 |  | 0.0462 |  |
| T55C | 0.0821 | 0.143 | 0.122 |  |  |  | 0.0609 | 0.0947 | 0.0806 | 0.0516 | 0.0552 | 0.0476 | 0.104 | 0.0464 | 0.0638 | 0.0581 |  |  | 0.0698 |
| N45E | 0.066 | 0.0498 | 0.0653 | 0.0544 | 0.0691 | 0.0556 | 0.0527 | 0.0519 | 0.0581 | 0.0543 | 0.0588 | 0.0558 | 0.0584 | 0.0616 | 0.0521 | 0.0515 | 0.0706 |  |  |
| Q59K | 0.0981 |  | 0.0886 |  | 0.0583 |  | 0.0461 | 0.0965 |  |  |  | 0.0607 | 0.109 | 0.05 | 0.0484 |  |  | 0.095 |  |
| Q59G | 0.132 | 0.106 | 0.124 |  | 0.0828 |  |  | 0.102 |  |  |  | 0.0608 | 0.0984 | 0.0564 | 0.0691 |  | 0.0587 |  |  |
